In the supplement of paper PMC7125110:
± gives the standard error. This sample is rich in variants without activity.

B1: glmS ribozyme (parent)
chain: AUAAAAGCGCCAGAACUACAGAAAUGUAGUUGACGAGGAGGAGGUUUAUCGAAUUUUCGGCGGAUGCCUCCAAA

Tests used:
Settings in all cases: with glucosamine-6-phosphate
[1] = variants of: B1; experiment: self-cleavage kobs at 40 uM GlcN6P; higher = faster cleavage; RNA array
Summary of the method: (§1)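 kobs was derived by fitting per-tile medians to one- or two-exponential decays after normalising signals to baseline and to non-cleaving reference variants. Those signals came from barcoded ribozyme variants transcribed in situ by E. coli RNA polymerase on sequenced MiSeq chips, followed through a hybridised Cy3 probe at 37 °C and imaged over ~14 h. Glucosamine-6-phosphate (40 μM to 10 mM) in HEPES/KCl/Mg(OAc)2 buffer was flowed in. Weighted Michaelis–Menten fits across concentrations then gave kcat and KM.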

[2] = variants of: B1; experiment: self-cleavage kobs at 640 uM GlcN6P; higher = faster cleavage; RNA array
Summary of the method: as §1

[3] = variants of: B1; experiment: self-cleavage kobs at 160 uM GlcN6P; higher = faster cleavage; RNA array
Summary of the method: as §1

[4] = variants of: B1; experiment: self-cleavage kobs at 2500 uM GlcN6P; higher = faster cleavage; RNA array
Summary of the method: as §1

[5] = variants of: B1; experiment: self-cleavage kobs at 10000 uM GlcN6P; higher = faster cleavage; RNA array
Summary of the method: as §1

Variant	self-cleavage kobs at 40 uM GlcN6P [1] [s⁻¹]	self-cleavage kobs at 640 uM GlcN6P [2] [s⁻¹]	self-cleavage kobs at 160 uM GlcN6P [3] [s⁻¹]	self-cleavage kobs at 2500 uM GlcN6P [4] [s⁻¹]	self-cleavage kobs at 10000 uM GlcN6P [5] [s⁻¹]
G9A G40U	< 1e-05	< 1e-05	< 1e-05	< 1e-05	< 1e-05
C8U G32A G41U	< 1e-05	< 1e-05	< 1e-05	< 1e-05	< 1e-05
C8U A36C C67U	< 1e-05				
G9A G29U	< 1e-05	< 1e-05	< 1e-05	< 1e-05	
C8G U30C	< 1e-05			< 1e-05	< 1e-05
C8U G35C A42G G43C C71G	< 1e-05				< 1e-05
C8U A33C C71A	< 1e-05				
G9A C58G	< 1e-05				
C8U C11U A12C A48G G62A C67U	< 1e-05			< 1e-05	< 1e-05
G9A A33C	< 1e-05	< 1e-05	< 1e-05		
C8U G51A	< 1e-05	< 1e-05		< 1e-05	< 1e-05
C8U C11U G44A A48G G63U	< 1e-05	< 1e-05		< 1e-05	< 1e-05
C8U C10A G32A G41A	< 1e-05	< 1e-05	< 1e-05	< 1e-05	
C8U A12G	< 1e-05	< 1e-05	< 1e-05	< 1e-05	< 1e-05
C8U A14G G40U	< 1e-05	< 1e-05	< 1e-05	< 1e-05	< 1e-05
G9A C58G U65C	< 1e-05	< 1e-05		< 1e-05	
G9A C34G A42G C50A	< 1e-05			< 1e-05	< 1e-05
C8U C16U C67G	< 1e-05				< 1e-05
C8G U65C	< 1e-05	< 1e-05	< 1e-05	< 1e-05	
G9A C11A	< 1e-05		< 1e-05		
C8U U46G	< 1e-05	< 1e-05	< 1e-05		< 1e-05
G9A A14C G37C G38U U49C U69A	< 1e-05				

Variant	self-cleavage kobs at 40 uM GlcN6P [1] [s⁻¹]	self-cleavage kobs at 640 uM GlcN6P [2] [s⁻¹]	self-cleavage kobs at 160 uM GlcN6P [3] [s⁻¹]	self-cleavage kobs at 2500 uM GlcN6P [4] [s⁻¹]	self-cleavage kobs at 10000 uM GlcN6P [5] [s⁻¹]
G9A A42G G43U C61A	< 1e-05	< 1e-05			
C8G U55C	< 1e-05				
C8G U56G C70U C71A	< 1e-05				
C8U U54C	< 1e-05	< 1e-05		< 1e-05	< 1e-05
C8U A53U G63U	< 1e-05	< 1e-05	< 1e-05	< 1e-05	
C8U G13C G51A	< 1e-05				
C8G U47A G62C	< 1e-05				
G9A G32C G43A C68G	< 1e-05				
G9A C10U A36U U54A	< 1e-05				
C8U G41A A42U G59A	< 1e-05				
C8U A39C	< 1e-05	< 1e-05	< 1e-05	< 1e-05	< 1e-05
C8U A39G	< 1e-05		< 1e-05	< 1e-05	< 1e-05
C8U G63C	< 1e-05	< 1e-05	< 1e-05	< 1e-05	< 1e-05
C8U C10U	< 1e-05	< 1e-05			
C8U G41C U56A	< 1e-05		< 1e-05		< 1e-05
G9A A48G G63U	< 1e-05				
C8U C10G A15C U45A	< 1e-05	< 1e-05			
G9A A33G G62U	< 1e-05				< 1e-05
C8G U69C	< 1e-05			< 1e-05	
C8U U31C G37A	< 1e-05	< 1e-05			< 1e-05
C8U G41A A64G	< 1e-05				< 1e-05
C8U U57A	< 1e-05		< 1e-05	< 1e-05	

Variant	self-cleavage kobs at 40 uM GlcN6P [1] [s⁻¹]	self-cleavage kobs at 640 uM GlcN6P [2] [s⁻¹]	self-cleavage kobs at 160 uM GlcN6P [3] [s⁻¹]	self-cleavage kobs at 2500 uM GlcN6P [4] [s⁻¹]	self-cleavage kobs at 10000 uM GlcN6P [5] [s⁻¹]
C8U G62U	< 1e-05	< 1e-05		< 1e-05	
G9A A36G	< 1e-05		< 1e-05	< 1e-05	< 1e-05
C8G U47G U49G	< 1e-05				
C8U G35U A42U C50U	< 1e-05				
G9A C70G	< 1e-05	< 1e-05	< 1e-05	< 1e-05	< 1e-05
C8U A15U U30G G35C G41U	< 1e-05	< 1e-05		< 1e-05	
C8U G60C	< 1e-05	< 1e-05	< 1e-05	< 1e-05	< 1e-05
G9A A48C	< 1e-05	< 1e-05	< 1e-05	< 1e-05	< 1e-05
C8G U47A C70G	< 1e-05	< 1e-05	< 1e-05	< 1e-05	< 1e-05
C8U C16G A36G	< 1e-05				< 1e-05
G9A C71U	< 1e-05	< 1e-05	< 1e-05		
C8G U49C	< 1e-05	< 1e-05	< 1e-05	< 1e-05	< 1e-05
C8G U49G	< 1e-05	< 1e-05			< 1e-05
C8U C16U	< 1e-05	< 1e-05	< 1e-05	< 1e-05	
G9A G38C C68U	< 1e-05				
C8U C11U U45G A53U U54A C70G	< 1e-05	< 1e-05		< 1e-05	
C8G U54A	< 1e-05	< 1e-05	< 1e-05	< 1e-05	
C8U G35C A39U C50U U55A	< 1e-05	< 1e-05	< 1e-05	< 1e-05	
C8U C70U	< 1e-05		< 1e-05		
G9A C34G	< 1e-05		< 1e-05	< 1e-05	< 1e-05
G9A C11G A53G	< 1e-05				
G9A G13U C50G U57A	0.000665 ± 0.00023				9.79e-05 ± 2e-05

Variant	self-cleavage kobs at 40 uM GlcN6P [1] [s⁻¹]	self-cleavage kobs at 640 uM GlcN6P [2] [s⁻¹]	self-cleavage kobs at 160 uM GlcN6P [3] [s⁻¹]	self-cleavage kobs at 2500 uM GlcN6P [4] [s⁻¹]	self-cleavage kobs at 10000 uM GlcN6P [5] [s⁻¹]
C8U U55C	< 1e-05	< 1e-05		< 1e-05	< 1e-05
G9A A39G A42C	< 1e-05				
G9A A52C	< 1e-05	< 1e-05	< 1e-05	< 1e-05	
G9A A52U	< 1e-05	< 1e-05	< 1e-05	< 1e-05	< 1e-05
C8U G9A C50G C67U	6.37e-05 ± 1.7e-05			0.000169 ± 4.6e-05	6.88e-05 ± 1.6e-05
C8G U57A	< 1e-05	< 1e-05		< 1e-05	< 1e-05
C8U G13A	< 1e-05	< 1e-05	< 1e-05	< 1e-05	
G9A C34G U46C C61U G62U	< 1e-05				
C8U A33C G41A	< 1e-05			< 1e-05	< 1e-05
C8U U45G	< 1e-05	< 1e-05	< 1e-05	< 1e-05	
C8U U45A	< 1e-05	< 1e-05	< 1e-05	< 1e-05	< 1e-05
C8U G13U A14G C16A A48C C71G	< 1e-05				
C8U G32C	< 1e-05	< 1e-05	< 1e-05	< 1e-05	< 1e-05
C8U G32U	< 1e-05	< 1e-05	< 1e-05	< 1e-05	< 1e-05
C8U G44C	< 1e-05	< 1e-05	< 1e-05	< 1e-05	
G9A G41C	< 1e-05	< 1e-05	< 1e-05	< 1e-05	< 1e-05
C8U A53G	< 1e-05	< 1e-05		< 1e-05	< 1e-05
C8U G40A	< 1e-05	< 1e-05	< 1e-05	< 1e-05	< 1e-05
C8U U31C	< 1e-05	< 1e-05	< 1e-05		< 1e-05
C8U U65A	< 1e-05	< 1e-05	< 1e-05	< 1e-05	
C8U C11G	< 1e-05	< 1e-05	< 1e-05	< 1e-05	< 1e-05
